Experimental data taken from paper PMC10911177, “Exploring the ATG9A interactome uncovers interaction with VPS13A” (Journal of cell science, 2024).
Results are given in words; binding and its absence hold for the method and conditions named. In cells and extracts the contact can be indirect. Some results given as binding are weak or reduced against the parent protein; the word gives no strength. For part of these data: Tags and fused reporters may be left off the sequences shown. One block for each molecule: values may come before it.

Chains of the proteins cited; added tags and fusions are not shown. Lines headed by an entry give the natural chain unless they say otherwise; changes in a name come on top. Residues count along the entry.
UniProt Q96RL7: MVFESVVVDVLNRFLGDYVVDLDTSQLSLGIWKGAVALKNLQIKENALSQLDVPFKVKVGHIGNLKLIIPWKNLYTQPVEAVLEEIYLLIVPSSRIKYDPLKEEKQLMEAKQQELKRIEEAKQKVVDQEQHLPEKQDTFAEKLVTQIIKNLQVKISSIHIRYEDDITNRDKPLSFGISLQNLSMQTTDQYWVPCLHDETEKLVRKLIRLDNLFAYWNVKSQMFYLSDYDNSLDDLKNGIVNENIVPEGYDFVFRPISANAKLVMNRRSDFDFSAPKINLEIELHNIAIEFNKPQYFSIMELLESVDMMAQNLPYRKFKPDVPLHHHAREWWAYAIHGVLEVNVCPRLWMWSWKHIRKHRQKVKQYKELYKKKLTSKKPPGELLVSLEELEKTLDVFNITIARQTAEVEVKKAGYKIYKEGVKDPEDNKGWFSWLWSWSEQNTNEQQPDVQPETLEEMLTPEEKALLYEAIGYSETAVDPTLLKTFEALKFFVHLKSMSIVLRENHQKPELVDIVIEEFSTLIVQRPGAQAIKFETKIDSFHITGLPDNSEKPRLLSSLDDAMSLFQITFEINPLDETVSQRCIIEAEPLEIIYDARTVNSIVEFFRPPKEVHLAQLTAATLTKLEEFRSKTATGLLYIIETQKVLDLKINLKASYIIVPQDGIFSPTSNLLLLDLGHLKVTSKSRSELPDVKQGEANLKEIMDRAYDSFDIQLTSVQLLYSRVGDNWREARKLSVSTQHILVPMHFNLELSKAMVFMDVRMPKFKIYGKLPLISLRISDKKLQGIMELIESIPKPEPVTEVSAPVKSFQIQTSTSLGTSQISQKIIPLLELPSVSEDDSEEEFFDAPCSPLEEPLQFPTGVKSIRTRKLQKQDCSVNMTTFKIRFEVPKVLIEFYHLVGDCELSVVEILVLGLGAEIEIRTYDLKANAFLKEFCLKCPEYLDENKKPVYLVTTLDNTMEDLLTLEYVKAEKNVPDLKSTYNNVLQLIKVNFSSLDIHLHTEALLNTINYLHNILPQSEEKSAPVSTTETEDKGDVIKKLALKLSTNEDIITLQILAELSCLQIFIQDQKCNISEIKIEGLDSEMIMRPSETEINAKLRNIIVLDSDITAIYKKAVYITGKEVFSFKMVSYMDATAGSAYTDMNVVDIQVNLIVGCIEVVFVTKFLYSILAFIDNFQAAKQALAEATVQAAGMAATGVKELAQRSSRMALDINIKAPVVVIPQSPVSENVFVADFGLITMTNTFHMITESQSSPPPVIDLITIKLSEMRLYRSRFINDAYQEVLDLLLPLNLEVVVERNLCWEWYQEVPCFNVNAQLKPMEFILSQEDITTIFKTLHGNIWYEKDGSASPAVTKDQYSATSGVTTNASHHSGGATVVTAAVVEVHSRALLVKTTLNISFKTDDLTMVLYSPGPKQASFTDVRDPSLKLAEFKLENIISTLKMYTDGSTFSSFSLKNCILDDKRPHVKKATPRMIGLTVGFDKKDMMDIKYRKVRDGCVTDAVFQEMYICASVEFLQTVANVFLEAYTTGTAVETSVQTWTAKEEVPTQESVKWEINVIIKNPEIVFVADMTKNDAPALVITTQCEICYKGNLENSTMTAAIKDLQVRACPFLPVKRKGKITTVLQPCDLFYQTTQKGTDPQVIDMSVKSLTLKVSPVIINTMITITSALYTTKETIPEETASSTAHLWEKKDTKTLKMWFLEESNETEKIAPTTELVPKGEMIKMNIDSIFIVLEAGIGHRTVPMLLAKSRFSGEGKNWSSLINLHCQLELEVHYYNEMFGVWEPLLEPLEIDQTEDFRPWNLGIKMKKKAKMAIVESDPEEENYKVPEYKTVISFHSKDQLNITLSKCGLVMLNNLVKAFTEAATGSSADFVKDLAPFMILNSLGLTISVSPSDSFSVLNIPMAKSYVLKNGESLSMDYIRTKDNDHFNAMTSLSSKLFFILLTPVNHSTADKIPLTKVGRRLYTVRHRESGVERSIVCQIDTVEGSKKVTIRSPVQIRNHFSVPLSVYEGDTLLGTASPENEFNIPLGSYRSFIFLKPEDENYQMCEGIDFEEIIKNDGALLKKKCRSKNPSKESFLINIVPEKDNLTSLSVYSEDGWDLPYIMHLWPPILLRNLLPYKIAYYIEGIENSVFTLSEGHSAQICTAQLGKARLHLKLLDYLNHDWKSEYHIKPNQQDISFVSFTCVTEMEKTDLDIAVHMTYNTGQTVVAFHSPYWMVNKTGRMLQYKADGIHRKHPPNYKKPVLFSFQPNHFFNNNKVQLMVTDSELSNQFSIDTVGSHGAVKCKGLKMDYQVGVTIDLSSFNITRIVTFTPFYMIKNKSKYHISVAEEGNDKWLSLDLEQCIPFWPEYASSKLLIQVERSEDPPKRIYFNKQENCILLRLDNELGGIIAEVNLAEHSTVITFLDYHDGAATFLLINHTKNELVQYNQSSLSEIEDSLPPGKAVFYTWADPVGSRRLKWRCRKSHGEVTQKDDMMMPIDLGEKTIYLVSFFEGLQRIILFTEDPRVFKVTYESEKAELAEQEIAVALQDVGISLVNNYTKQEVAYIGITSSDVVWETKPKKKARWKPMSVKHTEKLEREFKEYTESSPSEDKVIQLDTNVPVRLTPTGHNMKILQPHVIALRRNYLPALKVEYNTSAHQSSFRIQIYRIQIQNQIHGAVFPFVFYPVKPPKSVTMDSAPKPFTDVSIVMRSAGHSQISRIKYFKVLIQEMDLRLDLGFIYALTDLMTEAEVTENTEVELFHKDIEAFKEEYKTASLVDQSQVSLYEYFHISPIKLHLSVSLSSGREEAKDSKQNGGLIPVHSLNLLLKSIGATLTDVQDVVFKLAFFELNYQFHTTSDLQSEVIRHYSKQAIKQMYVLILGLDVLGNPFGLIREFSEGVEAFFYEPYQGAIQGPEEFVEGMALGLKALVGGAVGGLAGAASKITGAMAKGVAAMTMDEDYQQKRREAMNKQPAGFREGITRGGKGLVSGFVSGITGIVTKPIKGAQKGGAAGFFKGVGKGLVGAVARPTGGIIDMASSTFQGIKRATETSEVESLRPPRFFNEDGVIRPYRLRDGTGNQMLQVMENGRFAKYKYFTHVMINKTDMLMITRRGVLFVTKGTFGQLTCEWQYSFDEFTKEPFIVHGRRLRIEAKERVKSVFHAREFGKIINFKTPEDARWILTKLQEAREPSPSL
GFP−VPS13A fragment 1: residues 1-1372 of Q96RL7
GFP−VPS13A fragment 3: residues 1858-2553 of Q96RL7
GFP−VPS13A fragment 4: residues 2554-3174 of Q96RL7
UniProt O95573: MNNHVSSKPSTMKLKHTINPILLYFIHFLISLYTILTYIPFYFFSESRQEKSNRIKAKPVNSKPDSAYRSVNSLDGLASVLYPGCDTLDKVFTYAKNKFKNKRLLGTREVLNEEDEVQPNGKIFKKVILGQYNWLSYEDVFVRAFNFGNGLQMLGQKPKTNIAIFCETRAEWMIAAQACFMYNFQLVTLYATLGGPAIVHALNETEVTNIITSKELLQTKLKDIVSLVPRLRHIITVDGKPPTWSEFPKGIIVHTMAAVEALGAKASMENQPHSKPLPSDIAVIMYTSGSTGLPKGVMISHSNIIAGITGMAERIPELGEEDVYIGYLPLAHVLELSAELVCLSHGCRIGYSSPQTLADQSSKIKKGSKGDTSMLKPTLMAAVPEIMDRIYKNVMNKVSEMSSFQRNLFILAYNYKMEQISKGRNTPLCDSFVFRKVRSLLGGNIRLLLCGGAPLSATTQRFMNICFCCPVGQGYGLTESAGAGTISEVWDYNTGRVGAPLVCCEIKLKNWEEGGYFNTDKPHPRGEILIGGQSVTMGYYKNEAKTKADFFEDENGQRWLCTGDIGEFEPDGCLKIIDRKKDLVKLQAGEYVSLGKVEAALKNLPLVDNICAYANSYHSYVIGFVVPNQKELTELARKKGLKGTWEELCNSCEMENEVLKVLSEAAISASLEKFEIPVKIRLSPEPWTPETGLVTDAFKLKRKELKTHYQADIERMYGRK

Tests used:
GFP−ATG9A FL = target: T1, GFP−ATG9A FL (UniProt Q7Z3C6); assay: co-IP; cells expressing tagged proteins; GFP-TRAP or RFP-Trap beads overnight at 4°C, four washes with TNTE or LMNG buffer; immunoblot
T1 sequence: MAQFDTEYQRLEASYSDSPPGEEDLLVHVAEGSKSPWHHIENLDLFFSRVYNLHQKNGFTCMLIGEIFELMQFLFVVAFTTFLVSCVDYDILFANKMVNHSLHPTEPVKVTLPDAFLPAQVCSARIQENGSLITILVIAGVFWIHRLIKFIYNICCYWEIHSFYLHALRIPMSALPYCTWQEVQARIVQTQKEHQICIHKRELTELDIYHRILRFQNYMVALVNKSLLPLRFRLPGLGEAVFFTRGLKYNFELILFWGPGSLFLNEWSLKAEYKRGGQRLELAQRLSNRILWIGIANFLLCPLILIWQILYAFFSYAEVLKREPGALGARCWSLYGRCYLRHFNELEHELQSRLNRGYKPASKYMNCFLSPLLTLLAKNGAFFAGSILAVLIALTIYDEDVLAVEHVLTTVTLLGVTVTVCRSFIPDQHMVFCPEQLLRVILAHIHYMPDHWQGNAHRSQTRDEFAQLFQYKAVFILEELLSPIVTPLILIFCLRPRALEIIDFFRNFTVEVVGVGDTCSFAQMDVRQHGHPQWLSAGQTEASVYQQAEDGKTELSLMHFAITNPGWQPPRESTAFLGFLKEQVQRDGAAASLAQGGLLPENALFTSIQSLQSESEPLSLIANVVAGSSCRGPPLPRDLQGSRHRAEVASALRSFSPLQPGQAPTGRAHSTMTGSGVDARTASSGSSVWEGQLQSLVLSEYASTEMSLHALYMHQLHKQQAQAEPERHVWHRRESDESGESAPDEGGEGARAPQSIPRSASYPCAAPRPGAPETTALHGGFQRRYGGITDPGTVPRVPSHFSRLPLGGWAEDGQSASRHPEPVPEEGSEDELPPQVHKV

GFP−ATG9A ΔC = target: T2, GFP−ATG9A ΔC (UniProt Q7Z3C6); assay: as above
T2 sequence: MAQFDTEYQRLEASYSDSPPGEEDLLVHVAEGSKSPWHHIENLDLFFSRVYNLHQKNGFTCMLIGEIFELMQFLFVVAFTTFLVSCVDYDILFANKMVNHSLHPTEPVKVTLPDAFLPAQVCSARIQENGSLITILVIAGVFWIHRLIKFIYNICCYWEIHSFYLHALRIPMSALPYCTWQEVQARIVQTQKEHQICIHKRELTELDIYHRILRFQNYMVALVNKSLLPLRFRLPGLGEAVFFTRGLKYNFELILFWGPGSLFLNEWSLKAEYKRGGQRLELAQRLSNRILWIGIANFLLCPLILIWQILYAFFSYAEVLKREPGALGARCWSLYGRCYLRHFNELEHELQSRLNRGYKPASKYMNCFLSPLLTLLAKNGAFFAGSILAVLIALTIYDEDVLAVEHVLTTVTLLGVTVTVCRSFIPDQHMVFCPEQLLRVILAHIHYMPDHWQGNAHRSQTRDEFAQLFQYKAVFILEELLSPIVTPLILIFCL

GFP−ATG9A C-Term = target: T3, GFP−ATG9A C-Term (UniProt Q7Z3C6); assay: as above
T3 sequence: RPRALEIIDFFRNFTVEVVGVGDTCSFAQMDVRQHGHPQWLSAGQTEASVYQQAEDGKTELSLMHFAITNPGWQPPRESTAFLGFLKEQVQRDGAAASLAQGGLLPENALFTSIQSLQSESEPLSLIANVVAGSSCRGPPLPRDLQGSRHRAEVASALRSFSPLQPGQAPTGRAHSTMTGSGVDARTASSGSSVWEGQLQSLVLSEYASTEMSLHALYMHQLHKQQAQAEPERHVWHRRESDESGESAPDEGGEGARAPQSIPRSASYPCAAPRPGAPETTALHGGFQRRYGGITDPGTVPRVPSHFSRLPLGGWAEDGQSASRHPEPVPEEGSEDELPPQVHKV

[1] = target: T4, ATG9A (endogenous) (human (endogenous in HEK293A)) (UniProt Q7Z3C6); assay: co-IP; endogenous ATG9A immunoprecipitated with anti-ATG9A antibodies on protein A Dynabeads; immunoblot for endogenous ACSL3
T4 sequence: T1 sequence

VPS13CμClover = VPS13CμClover (UniProt Q709C8); assay: co-IP; cells expressing tagged proteins; GFP-TRAP or RFP-Trap beads overnight at 4°C, four washes with TNTE or LMNG buffer; immunoblot
VPS13AμmCherry (human) = VPS13AμmCherry (human) (UniProt Q96RL7); assay: as above
[2] = target: GFP−VPS13A fragment 1 (human) (UniProt Q96RL7); assay: as above
[3] = target: GFP−VPS13A fragment 3 (human) (UniProt Q96RL7); assay: as above
[4] = target: GFP−VPS13A fragment 4 (human) (UniProt Q96RL7); assay: as above

binding (GFP−ATG9A FL): binds | binding (GFP−ATG9A ΔC): binds | binding (GFP−ATG9A C-Term): binds
Molecule: 3×Flag−VPS13A full length (from UniProt Q96RL7 1-3174)

binding (VPS13CμClover): binds | binding (VPS13AμmCherry (human)): binds
B1: ATG9A (endogenous) (protein, UniProt Q7Z3C6 1-839)
chain: T1 sequence

The next lines start with the molecule.

Molecule: ACSL3 (endogenous) (from UniProt O95573 1-720)
binding [1]: binds

B2: 3×Flag−ATG9A (protein, UniProt Q7Z3C6 1-839)
chain: T1 sequence
binding [2]: binds | binding [3]: no binding | binding [4]: binds
